Laboratory results from PubChem BioAssay AID743279 (National Center for Advancing Translational Sciences (NCATS), 2014).
The whole screen tested about 360,000 compounds, of which about 17,000 (4.7%) were called active. Inconclusive means that the source gave no clear call. Such entries were picked first, then a sample of the others. Rule as the data show it: active = activity change below about -50%; inconclusive = mostly about -30% to -49%; inactive = weaker than that.

Test: qHTS for Inhibitors of Inflammasome Signaling: IL-1-beta AlphaLISA Primary Screen
Settings: THP-1 LPS/ATP IL-1B secretion, 16 h; at 57.5 µM, stronger effect = lower value
Method in brief: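 THP-1 cells pretreated 1 hr with compounds (up to 57.5 uM final), then stimulated with LPS (250 ng/mL final) plus ATP (1.25 mM final); secreted IL-1B measured by AlphaLISA after 16 hr, decreased signal indicating inhibition.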
% is scaled to controls: 0 for no effect and ±100 for the full control effect.

Q: Which activity change does the source give for CN(C)C(=O)CCC(=O)N1CCCC(C(=O)c2ccc3c4c(cccc24)CC3)C1 (centres undefined) here?
A: inactive: -7.94%

Q: Which activity change does the source give for CCOc1ccc2ccccc2c1C(=O)NCC(c1ccc(N(C)C)cc1)N(C)C (centres undefined) here?
A: inconclusive: -30.6%

Q: Which activity change does the source give for Cn1ccs/c1=N\C(=O)Nc1cccc(C(F)(F)F)c1 here?
A: inconclusive: -40.6%

Q: With CCCn1c(=N)n(CC(=O)c2ccc([N+](=O)[O-])cc2)c2ccccc21 as the compound, how does the activity change read?
A: active: -52.9%

Q: For Cc1ccc(NS(=O)(=O)c2cccc(C(=O)NCCc3c[nH]c4ccccc34)c2)c(C)c1, which activity change is on record?
A: active: -78%

Q: Which activity change does the source give for COc1cccc2c(Cl)c(CC=C(Cl)Cl)c(C)nc12 here?
A: active: -50.2%

Q: With COc1ccccc1OCCNC1CCCC1 as the compound, how does the activity change read?
A: inactive: -0.968%

Q: With COc1ccc(-c2cc(C(=O)N(C)Cc3ccccc3F)c3ccccc3n2)cc1OC as the compound, how does the activity change read?
A: inconclusive: -31%

Q: Which activity change does the source give for Cc1cccc(N2CCN(C(=O)c3cn(C)c(=O)c4c3c3ccccc3n4C)CC2)c1C here?
A: inconclusive: -41.1%

Q: Which activity change does the source give for O=c1/c(=C/c2ccc([N+](=O)[O-])cc2)sc2n1CCCN=2 here?
A: inconclusive: -40.5%

Q: Which activity change does the source give for O/N=C(/CCc1ccccc1)c1ccc2c(c1)OCCO2 here?
A: inconclusive: -40.4%

Q: With CCN(CC)S(=O)(=O)c1ccc(OC)c(NC(=O)c2cc3c(=O)n4ccccc4nc3s2)c1 as the compound, how does the activity change read?
A: inactive: -5.81%

Q: With COc1cc(/C(C)=N/NC(=S)NC(C)C)cc(OC)c1OC as the compound, how does the activity change read?
A: inconclusive: -34.2%

Q: Which activity change does the source give for Cn1c(SCc2ccc3c(c2)OCO3)nnc1-c1ccccc1 here?
A: inconclusive: -33.1%

Q: With C[C@H]1Cn2cnc(C(=O)Nc3ccc(CNC(=O)OC(C)(C)C)cc3)c2C(=O)N1 as the compound, how does the activity change read?
A: inconclusive: -37.8%

Q: With CCOc1ccc(C(=O)C(CCC(CN(C)C)C(=O)c2ccc(OCC)cc2)CN(C)C)cc1 (centres undefined) as the compound, how does the activity change read?
A: active: -100%

Q: With O=C(c1cc2ccccc2o1)c1nc2c(n1O)CCCCC2 as the compound, how does the activity change read?
A: inconclusive: -38%

Q: With CC(C)C[C@H]1CNC(=S)N1CC1CCCN1C[C@H](Cc1ccccc1)N1C[C@H](Cc2ccc(O)cc2)N(CC2CCCCCC2)C1=S (some centres undefined) as the compound, how does the activity change read?
A: active: -67.4%

Q: For NCCSc1c(-c2ccc(F)cc2)[nH]c2ccccc12, which activity change is on record?
A: active: -71.2%

Q: With COc1ccccc1CNC(=O)CCSCc1cccc(Cl)c1 as the compound, how does the activity change read?
A: active: -71.6%

Q: With Cn1c(-c2ccccc2)cnc1NCc1cccc([N+](=O)[O-])c1 as the compound, how does the activity change read?
A: inconclusive: -35.7%

Q: For COc1ccc(NC(=O)CCCN2C(=O)C(c3ccccc3)Oc3cccnc32)cc1OC (centres undefined), which activity change is on record?
A: inconclusive: -43.1%

Q: Which activity change does the source give for Cc1ccc(CCNC(=O)CCCn2nc(C)c3c(C)n(-c4ccc(C)cc4)nc3c2=O)cc1 here?
A: inactive: -3.69%

Q: For Cc1ccc(NS(=O)(=O)c2ccc(NC(=O)C(C)Sc3ccc(Cl)cc3)cc2)c(C)c1 (centres undefined), which activity change is on record?
A: inconclusive: -37.8%
